The record followed here is the RNAGym collection of RNA variant scans (doi:10.7554/elife.90254).

Read counts are not given, so values of variants with three or more changes are uncertain.

Sequences and labels used below:
B1: LINE1-mini (parent)
chain: GGCAGAGCUCAACACAGCGUGGCAAAGUGGCUGUGGCUAGACUGCC

The series covers variants of B1. In words: self-cleavage, relative activity (ratio to wild type); higher = more cleavage; in vitro, sequencing; the parent is a self-cleaving ribozyme.
Turning to GGCAGAGCUAAACAAAGCAUGGCAAAGCGGCUGUGGCAAGACUGCC, the self-cleavage is 0.03.
Consider GGCAGAGCUAAACACAGCGUGGGCAAGUGGCUGUGGCUAGACUGAC, for which the self-cleavage was 0.02.
Consider GGCAGAGCUAAACACAGUGUGCCAAAGUGGCUGUGGCUAGACAGCC, for which the self-cleavage came to 0.01.
For GGCAGAGCUAAACACAGCGUGGCAAAGUGGGCGUGGCUAGACUACC the value was 0.02; for GGCAGAGCUAAACACAUCGUGUAAAAGUGGCUGUGGCUAGACUGCC, 0.09.
The figure for GGCAGAGCUAAACACAGCCUGGCAAAGUGGCUGUGGCGAGACUUCC is 0.01; for GGCAGAGCUAAACACAGCGUGGAAAAGUGGCUAUGGCUAGAUUGCC it is 0.05; for GGCAGAGCUAAACACGGCCUGGCAAAGUGGCUAUGUCUAGACUGCC it is 0.01.
For GGCAGAGCUAAACACAGUGGGGCAAAGUGGCUGUGGCUAGACUGCC the value was 0.24; for GGCAGAGCUAAACACAGCGUGGCAAUGUGGCUGUGGCCAGAGUGCC, 0.03.
For GGCAGAGCUAAACACAGCGUGGCAAAGUGGCUGUGGGUAGACUGGC, the self-cleavage came out at 0.01.
Take GGCAGAGCUAAACACAGCGUGGCAAAGUGGCUGUGGCUGGGCCGCC: the self-cleavage is 0.01.
The figure for GGCAGAGCUAAACAUAGCGUGGCAAUGUGGCUGUGGCUAGACUGCC is 0.02.
For GGCAGAGCUAAACACUGCGUGGCAUAGUGGCUGUGGCUAGACUGCG the value was 0.02; for GGCAGAGCUAAACACACCGUGGCAAAGUGUCUGUGGCUAGAUUGCC, 0.03.
For GGCAGAGCUAAACACAACGUGGCAAGGUGGCUGUGGCUAGACUGCC the value was 0.05; for GGCAGAGCUAAAAACAGCGUGGCAAAGUUGCUGUGGCUAGACUGCG, 0.01; for GGCAGAGCUAAACACAGCGUGGCACAGUGGCUGUGGCUAGACUGCU, 0.02.
In the case of GGCAGAGCUAAACACAGCGUGGCACAGUGGCUGUGGCUAGACUGCA, the self-cleavage is 0.02.
For GGCAGAGCUAAACACCGCGUUGCAAAGUGGCAGUGGCUAGACAGCC the value was 0.01; for GGCAGAGCUAAACACAGCCUGGCAAAGUGGCUGAGGCUAGACUGCC, 0.01; for GGCAGAGCUAAACACGGCGUGGCAAAGUGGCUAUGGCUCGACUGCC, 0.01.
For GGCAGAGCUAAACACAGCGUGGCAAAGUGGGUGUGGCUAGACUGUC the value was 0.03; for GGCAGAGCUAAAAACAGCGUGGCAAAGUGGCUGUCGCUAGACUGCC, 0.03; for GGCAGAGCUAAAAACAGCGUGGCAAAGUGGCUGUUGCUAGACUGCC, 2.06.
For GGCAGAGCUAAACAUAGCGUGGCAAAGUGGCUGUGGAUAUACUGCU the value was 0.03; for GGCAGAGCUAAACACAGCGUGGCACAGUGGGUGUGGCUAGACUGCC, 0.04.
For GGCAGAGCUAAACACAGCGUGGCACAGUGGCUUUGGCUAGACUGCC, the self-cleavage turned out to be 0.05.
For GGCAGAGCUAAAGACGGCGUGGCAAAGUGGCUGUGGCUACACUGCC the value was 0; for GGCAGAGCUAAACAAAGCGUGGCAAAGUGGUUGUGGCUAGGCUGCC, 0.01; for GGCAGAGCUAAACACGGCGUGGCAAAGUGGAUGUGGCUAGACUGAC, 0.02.
For GGCAGAGCUAAAAACUUCGUGUCAAAGAGGAUGUGGCUAGACUGCC the value was 0; for GGCAGAGCUAAACACUGCGUGGCAAAGUGGCUGUGCCUAGACUGCC, 0.02.
The figure for GGCAGAGCUAAACACCGCGUGGCCACGUGGCUGUGGCUAGACUGCC is 0.01; for GGCAGAGCUAAACACAGCGUGGCAAAGUGGUUGUGGCUAGACUGCG it is 0.06; for GGCAGAGCUAAACACAGCGUGGAAAUGUGGCUGUGGCUAGACUGCC it is 0.04.
Take GGCAGAGCUAAACACAGCAUGGCAAAGUUGUUGUGGCUAGACUGCC: the self-cleavage is 0.02.
The figure for GGCAGAGCUAAACAGAGCGUGGCAAAGUGGCUGUGGCUAGACCGCC is 0.02; for GGCAGAGCUAAACACAGAGUGGCAAAGCGACUGUGGCUAGACUGCC it is 0.03; for GGCAGAGCUAAACACAGCGUGGCACAGUGGCUGUGGCUGGACUGCC it is 0.02.
On to GGCAGAGCUAAACACCGCGUGGCAAAGUGGCUGUGGCUAGACUGCA, for which the self-cleavage is 0.01.
The figure for GGCAGAGCUAAACACAGCGUGGAAAAGUGGCUGUGGCCAGACUGCC is 0.03.
The figure for GGCAGAGCUAAACACAGCAUGGCAAAGUAGCUGUGGCCAGACUGCC is 0.77; for GGCAGAGCUAAACACAGCGUGGCCAAGUAGCUGUGGCUAGCCUGCC it is 0; for GGCAGAGCUAAAAACAGCGUGGCAAAGUGGCUGUGGCUGGCCUGCC it is 0.05.
For GGCAGAGCUAAACACAGGGUGGCAAUGUGGUUGUGGCUAGACUGCC the value was 0.02.
As to GGCAGAGCUAAACACAGCGUGGAAAAGUGGCUGUCGCUAGUCUGCC, the self-cleavage came out at 0.01.
The figure for GGCAGAGCUAAACACAGCGUGGCAAAGUGGAUCUGGCUAGACUGCC is 0; for GGCAGAGCUAAACACAGCGUGGAAAAGUGACUGUGGCUAGAAUGCC it is 0.02.
For GGCAGAGCUAAACAUAGCGUGGAAAAGUGGCUGUAGCUAGACUGCC the value was 0.01; for GGCAGAGCUAAACACCGCGUGCCAAAGUGGCUGUGACUAGCUUGCC, 0.01.
For GGCAGAGCUAAACACAGCGUGGCGAAGUGGCUGUGGCGAGACUGCC the value was 0.08; for GGCAGAGCUAAACACAGAGUGGCAAAGUGGCUGUUGCUAGACUGCC, 0.01; for GGCAGAGCUAAACACAGAGUGGCAAAGUGGCUGUGACUAGACUGCC, 0.08.
GGCAGAGCUAAACACAGCGUGGGAAAGUGGCUGUGCAUAGACUGCC: the self-cleavage came out at 0.01.
The figure for GGCAGAGCUAAACACAGCGUGGCUGGGUGGCUGUGGCUAGACUGCC is 0.03; for GGCAGAGCUAAAGACAGCGUGGCCAAGUGGGCGUGGCUAGACUUCG it is 0.
The figure for GGCAGAGCUAAACACUGCGUGGCAAAGUGGCGGUGGCUAGACUGCC is 0.07; for GGCAGAGCUAAACACAGCGUGGCACAGUGGCUGUGGCUAGCCUGCC it is 0.05; for GGCAGAGCUAAAAACAGCGUAGCAAAGUGGCUGUGGCUAGACUGCC it is 0.
For GGCAGAGCUAAACACAGCGUGGCAAUGUGGCUGUGGCUAGCCUCCC the value was 0.04.
For GGCAGAGCUAAACACAACGUGGCAAAGUGGCUGUGGCUAGCCUGCC, the self-cleavage came out at 0.04.
For GGCAGAGCUAAACACAUCGUGGCAGAGAGGCUGUGGCUAGACUGCC the value was 0.02; for GGCAGAGCUAAAGAUAGCGUGGCAAAGUGGCUGUGGUUAGCCUGCC, 0.02; for GGCAGAGCUAAACACACCGUGGCAAAGAGGCUGUGGCUAGACUGCC, 0.06.
For GGCAGAGCUAAAAACAGAGUGGCAAAGUGGCUGUGGCUAGACUGCC the value was 0.04; for GGCAGAGCUAAACACAACGUGGCAAAGUGGCUGUGGCCAGACUGCC, 0.07; for GGCAGAGCUAAACACACCGUAGCAAAGUGGGUAUGGCUAGACUGGC, 0.01.
For GGCAGAGCUAAAAACUGCGAAGCAUAGUGGCUGUGGCUAGACUGCC the value was 0.03; for GGCAGAGCUAAACACCGUGCGGCAAAGUGGCUGUGGCUAGACUGCC, 0.03.
On to GGCAGAGCUAAACACAGCGUGGCACAGUGUCUGUGUCUAGAAUGCC, for which the self-cleavage was 0.01.
For GGCAGAGCUAAACACACCGUGUCAAAGUGGCUGUGGCUAGACUGCC the value was 0.06; for GGCAGAGCUAAACACAGCGUGGGACAGUGGCUGUGGCUAGACUGAC, 0.02; for GGCAGAGCUAAACACAGCGUGGCAAAGUGGGUGUGGCUAUACUGCC, 0.
The figure for GGCAGAGCUAAACACAGCCUGCCAAAGUGGCCGUGCCUAGACUGCC is 0.01.
The figure for GGCAGAGCUAAACACAGCAUCGCAAAGUGGCUGUGACUAGACUGCC is 0; for GGCAGAGCUAAACAUAUCGUGGCAAAGUGGCUGAGGUUAGACUGCC it is 0.09; for GGCAGAGCUAAACUCAGCGUGGCAAAGUGGCUGUGACUAGACUGCC it is 0.
GGCAGAGCUAAACACCGCGUGGCAAAGUGGCUGUGGCUAUACUGCC: the self-cleavage was found to be 0.05.
The figure for GGCAGAGCUAAACACGGCGUGGCAAAGUGGCUGUGGCAAGAAUGGC is 0.
For GGCAGAGCUAAACACAGCGUGGCAAAGUGGAUGUGGCUAGACUGAC the value was 0.02; for GGCAGAGCUAAACACCGCGUGGCUAAGUGGGUGUGGCUAGACUGUC, 0.02.
For GGCAGAGCUAAACACAGCGUGGAAAAGUGGCUGUGGCUAGACUGCA the value was 0.02; for GGCAGAGCUAAACACAGCGUGGCAAUGUGGCUGACGCUAGACUGCC, 0.
In the case of GGCAGAGCUAAACAAUGUGUGCCAAAGUCGCUGUGGCUAGACUGCC, the self-cleavage turned out to be 0.03.
Take GGCAGAGCUAAACACAGCGUGGCAAUGUGGCUGUGUCUAGUCUGCC: the self-cleavage was determined as 0.01.
With GGCAGAGCUAAACACAACGUGGCACAGUGGCUGUGGCUAGACCGCC, the self-cleavage came out at 0.02.
Turning to GGCAGAGCUAAAUACAGCGUGGCAAAGUUGCUGUGGCUAGACUGCC, the self-cleavage came to 0.01.
For GGCAGAGCUAAACAUAGCGUGGCAAAGUGGCUGUGGGUAGACUGGC the value was 0.01; for GGCAGAGCUAAACACAGUGUGGCAAAGUGGCUGUGGCUCGUGUGCC, 0.05; for GGCAGAGCUAAACACAGAGUGGCAAAGUGGCUGUGGUUAGACUGAC, 0.
The figure for GGCAGAGCUAAACAUAGCUUGGCAAAGUGUCUGUGGCUACAAUGCC is 0.02.
The figure for GGCAGAGCUAAACAUAGCGUUGCAAAGUGGCUCAGGCUAGACUGCG is 0.03; for GGCAGAGCUAAACACAGCGUGGCAAAGUGGCUGUGGCUAGCCUUCC it is 0.03.
For the variant GGCAGAGCUAAAUACAACGUGGCAAAGUGGCUGUCGCUACAGUGCC, the self-cleavage was 0.01.
Take GGCAGAGCUAAACACAGCCGAGCAAAGUGGCUGUUGCUAGACUUCC: the self-cleavage was 0.01.
The figure for GGCAGAGCUAAAGACAGCGUAGCAAAGUGGCUGUUGCUCGACUGCC is 0.03; for GGCAGAGCUAAACACUGCGGGUCAAAUUGGCUGUGGCCAGACUGCC it is 0.02; for GGCAGAGCUAAACACAGCGUGGCAAGGGGGCUGUGGCUAGACUGCC it is 0.04.
GGCAGAGCUAAACACAGCGUGGAAAAGUGGCAGCGGCUAGACUGCC: the self-cleavage turned out to be 0.01.
In the case of GGCAGAGCUAAACACAGCCUGGCAAAGUGGCUGUGGCUAGACUGCU, the self-cleavage stood at 0.01.
As to GGCAGAGCUAAACAAAGCGGGGCAAAGUGGCUGUGGCUAGACUGCC, the self-cleavage came out at 0.02.
For the variant GGCAGAGCUAAACACAGCGUGGCGGAGUGGCUGUGGCGAGACUGCC, the self-cleavage is 0.04.
The figure for GGCAGAGCUAAACACAGCCCGGCAAAGUGGCUGUGGCUAGUCUGCC is 0.02; for GGCAGAGCUAAACACAAAGUGGCAAAGUGGCUGUGGCUAGACGGCC it is 0.02; for GGCAGAGCUAAACACAACCUGGCAAUGUGGCUGUGGCUAGAGUUCC it is 0.02.
Take GGCAGAGCUAAACACAGCGUGGAAAGGUGGCUGUGCCUAUACUGCC: the self-cleavage amounted to 0.03.
The figure for GGCAGAGCUAAAUACAGCGUGGAAAAGUUGGUGUGGCUAGACUGCC is 0.02.
The figure for GGCAGAGCUAAAAACAGCGUGGCUAAGUGGCUGUGGCUAGGCUGCC is 0.01; for GGCAGAGCUAAACACAGGGGGGGAAAGUGGCUGUGGCUAGACUGCC it is 0.02.
For GGCAGAGCUAAACACAUCGUGUCACAGUGGCUGUGGCUAGACUGCC the value was 0.05; for GGCAGAGCUAAACACAGUGAGGCAAAGAGGCUUUGGCUAGACUGCC, 0.03.
